# Earlier results in PMC11006913.
# Substitutions are numbered along the chain they refer to. Some of the results follow.
# What was measured:
# Conditions in all cases: PBM; conditions not shown; double strand, one strand shown; scale: upbm affinity estimate (log intensity, higher = more binding, comparable within an allelic series)
# [1] = target: ARX (Homo sapiens) (UniProt Q96QS3)
# [2] = target: ARX L343Q (Homo sapiens) (UniProt Q96QS3)
# [3] = target: ARX P353L (Homo sapiens) (UniProt Q96QS3)
# [4] = target: ARX P353R (Homo sapiens) (UniProt Q96QS3)
# [5] = target: ARX R332H (Homo sapiens) (UniProt Q96QS3)
# [6] = target: ARX T333N (Homo sapiens) (UniProt Q96QS3)
# [7] = target: ISX (Homo sapiens) (UniProt Q2M1V0)
# [8] = target: ISX R83Q (Homo sapiens) (UniProt Q2M1V0)
# [9] = target: PROP1 R112Q (Homo sapiens) (UniProt O75360)
# [10] = target: PROP1 R99Q (Homo sapiens) (UniProt O75360)
# [11] = target: PITX2 L100Q (Homo sapiens) (UniProt Q99697)
# [12] = target: PITX2 R108H (Homo sapiens) (UniProt Q99697)
# [13] = target: PITX2 R130W (Homo sapiens) (UniProt Q99697)
# [14] = target: PITX2 T114P (Homo sapiens) (UniProt Q99697)
# [15] = target: NKX2-5 K183E (Homo sapiens) (UniProt P52952)
# [16] = target: NKX2-5 R161P (Homo sapiens) (UniProt P52952)
# [17] = target: NKX2-5 R190C (Homo sapiens) (UniProt P52952)
# [18] = target: T1, PBX4 (Homo sapiens) (UniProt Q9BYU1)
# T1 sequence: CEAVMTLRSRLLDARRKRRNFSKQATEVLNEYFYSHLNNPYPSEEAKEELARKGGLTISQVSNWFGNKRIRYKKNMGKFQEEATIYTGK
# [19] = target: T2, PBX4 R215Q (Homo sapiens) (UniProt Q9BYU1)
# T2 sequence: T1 sequence with R19Q
sequence,measurement,setting,value
CGTCCCGC [8-mer CGTCCCGC],binding signal,[1],9.96
same,binding signal,[2],10.1
same,binding signal,[3],10
same,binding signal,[4],10.1
same,binding signal,[5],10
same,binding signal,[6],10.1
same,binding signal,[7],9.79
same,binding signal,[8],9.68
same,binding signal,[9],10.7
same,binding signal,[10],10.8
ATTACTAG [8-mer ATTACTAG],binding signal,[1],11.5
same,binding signal,[2],10.7
same,binding signal,[3],11.4
same,binding signal,[4],10.7
same,binding signal,[5],10.8
same,binding signal,[6],11.1
same,binding signal,[9],11.9
same,binding signal,[10],11.6
GCGGACCC [8-mer GCGGACCC],binding signal,[1],10.1
same,binding signal,[2],10.1
same,binding signal,[3],10.1
same,binding signal,[4],9.98
same,binding signal,[5],10.1
same,binding signal,[6],10.2
same,binding signal,[9],10.9
same,binding signal,[10],10.9
CTAATTTA [8-mer CTAATTTA],binding signal,[1],12.6
same,binding signal,[2],10.7
same,binding signal,[3],12.2
same,binding signal,[4],10.7
same,binding signal,[5],10.8
same,binding signal,[6],11.7
same,binding signal,[7],14.8
same,binding signal,[8],13.3
same,binding signal,[9],12.5
same,binding signal,[10],11.9
CGAACCCC [8-mer CGAACCCC],binding signal,[1],10.2
same,binding signal,[2],10.3
same,binding signal,[3],10.3
same,binding signal,[4],10.1
same,binding signal,[5],10.3
same,binding signal,[6],10.3
same,binding signal,[9],10.9
same,binding signal,[10],11
CAATTGGG [8-mer CAATTGGG],binding signal,[1],11.3
same,binding signal,[2],10.5
same,binding signal,[3],11.2
same,binding signal,[4],10.5
same,binding signal,[5],10.8
same,binding signal,[6],11
same,binding signal,[9],12.2
CACGCGGG [8-mer CACGCGGG],binding signal,[1],10.1
same,binding signal,[2],10.1
same,binding signal,[3],10.1
same,binding signal,[4],10
same,binding signal,[5],10.1
same,binding signal,[6],10.2
same,binding signal,[7],9.73
same,binding signal,[8],9.68
same,binding signal,[11],8.07
same,binding signal,[12],8.07
same,binding signal,[13],7.91
same,binding signal,[14],8.05
CCGTGGCC [8-mer CCGTGGCC],binding signal,[1],10.3
same,binding signal,[2],10.1
same,binding signal,[3],10.3
same,binding signal,[4],10.1
same,binding signal,[5],10.1
same,binding signal,[6],10.2
same,binding signal,[15],9.97
same,binding signal,[16],10.1
same,binding signal,[17],10.1
AATTAGGG [8-mer AATTAGGG],binding signal,[1],12.9
same,binding signal,[2],10.8
same,binding signal,[3],12.4
same,binding signal,[4],10.6
same,binding signal,[5],10.8
same,binding signal,[6],11.9
same,binding signal,[7],14.6
same,binding signal,[8],13.2
same,binding signal,[9],12.6
same,binding signal,[10],12.2
GGGGCGTA [8-mer GGGGCGTA],binding signal,[1],10.3
same,binding signal,[2],10.2
same,binding signal,[3],10.3
same,binding signal,[4],10
same,binding signal,[5],10.1
same,binding signal,[6],10.4
same,binding signal,[7],9.75
same,binding signal,[8],9.83
ATAATCTC [8-mer ATAATCTC],binding signal,[1],11.3
same,binding signal,[2],10.8
same,binding signal,[3],11
same,binding signal,[4],10.7
same,binding signal,[5],10.8
same,binding signal,[6],11
same,binding signal,[11],11
same,binding signal,[12],9.28
same,binding signal,[13],8.67
same,binding signal,[14],9.55
ACCCCAGG [8-mer ACCCCAGG],binding signal,[1],10.2
same,binding signal,[2],10.1
same,binding signal,[3],10.2
same,binding signal,[4],10
same,binding signal,[5],10.2
same,binding signal,[6],10.2
same,binding signal,[18],9.67
same,binding signal,[19],9.76
same,binding signal,[11],8.49
same,binding signal,[12],8.04
same,binding signal,[13],7.87
same,binding signal,[14],8.21
CCCTGGGC [8-mer CCCTGGGC],binding signal,[1],10.1
same,binding signal,[2],10.1
same,binding signal,[3],10.2
same,binding signal,[4],10
same,binding signal,[5],10
same,binding signal,[6],10.2
same,binding signal,[9],10.9
same,binding signal,[10],10.9
